Assay results as given in the BET-seq Pho4 binding data (Le et al. 2018).
The other results are listed elsewhere or left out. These are noisy estimates, calculated here from bound and input reads.

target: T1, Pho4 (S. cerevisiae) (UniProt P07270); test: relative binding free energy (BET-seq); higher = weaker binding; conditions: reference: library average
T1 sequence: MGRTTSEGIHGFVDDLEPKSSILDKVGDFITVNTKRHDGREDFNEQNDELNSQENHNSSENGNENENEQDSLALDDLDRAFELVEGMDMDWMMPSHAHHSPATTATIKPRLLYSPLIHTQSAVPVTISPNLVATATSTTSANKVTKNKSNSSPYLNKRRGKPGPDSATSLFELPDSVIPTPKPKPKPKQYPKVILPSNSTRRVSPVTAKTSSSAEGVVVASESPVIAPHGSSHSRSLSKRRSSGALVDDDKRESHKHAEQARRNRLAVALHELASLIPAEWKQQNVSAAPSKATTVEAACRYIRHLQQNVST

| Sequence | relative binding free energy [kcal/mol] |
| --- | --- |
| AAAAGCACGTGTTTAT | -0.03 |
| GAGTTCACGTGTATAG | 0.34 |
| CTGTGCACGTGGGCGT | -0.21 |
| GGTGTCACGTGAGTGG | 0.29 |
| ACGGACACGTGGGGCT | -0.08 |
| CGATACACGTGTGGGT | 0.02 |
| GGGAACACGTGTTTAT | 0.06 |
| TTTCACACGTGATTGG | 0.09 |
| AATTTCACGTGCGGGG | 0.06 |
| GACAGCACGTGGTGAG | -0.02 |
| GAAGTCACGTGGTGGC | 0.13 |
| CTGGTCACGTGGTTGG | 0.07 |
| GGTGGCACGTGATGCC | 0.12 |
| CAAGTCACGTGTGGGG | 0.2 |
| GGGGTCACGTGGATCT | 0.22 |
| TTTAACACGTGTAGGC | 0.23 |
| TTAAACACGTGTGTTC | 0 |
| ATTGGCACGTGGATGG | -0.08 |
| GAGTGCACGTGAGATA | 0.3 |
| AAAAGCACGTGAGTGG | 0.14 |
| TATGTCACGTGTACTG | 0.12 |

| Sequence | relative binding free energy [kcal/mol] |
| --- | --- |
| GGGTACACGTGTGGCA | 0.07 |
| GAGAGCACGTGCGGGA | -0.11 |
| ATTGGCACGTGGGACG | -0.22 |
| GGTGTCACGTGGGTAA | 0.01 |
| TAGGACACGTGTAGGT | 0.17 |
| TGTTACACGTGGTTGT | 0.07 |
| TCAGGCACGTGGTAGA | -0.16 |
| TATTTCACGTGGAGTT | 0.24 |
| TAGGGCACGTGCGACG | 0.01 |
| ATAGGCACGTGTCAGG | -0.01 |
| CTTGGCACGTGAATTA | 0.39 |
| TTTAACACGTGTCGTA | -0.08 |
| TTATTCACGTGGCCGG | 0.24 |
| AGGGGCACGTGTGGAA | 0.03 |
| TGATGCACGTGAGGTG | 0.22 |
| GTAACCACGTGGCGGT | -0.05 |
| TGTTGCACGTGAGTGG | 0.26 |
| TAGTTCACGTGTATCA | 0.14 |
| TGAGGCACGTGGTTCG | -0.25 |
| GTTCTCACGTGTTTGG | 0.37 |
| GGGTGCACGTGGGACA | -0.13 |

| Sequence | relative binding free energy [kcal/mol] |
| --- | --- |
| TGGCTCACGTGGAGTG | 0.16 |
| GGCTACACGTGTGTAG | 0.13 |
| GTAGACACGTGGTCAT | 0.07 |
| GAGGACACGTGTGTGA | 0.22 |
| GCCTTCACGTGGTGGG | 0.27 |
| TTCTGCACGTGGATGA | 0.03 |
| TGCAGCACGTGGGTAG | -0.17 |
| CTAAACACGTGTGGGG | 0.05 |
| TGGATCACGTGGGTAC | 0.1 |
| TTCGCCACGTGGAGGG | -0.13 |
| CCGGGCACGTGGAAGG | 0.15 |
| AGATTCACGTGAGTGC | 0.37 |
| AGGGGCACGTGGTCGG | -0.24 |
| TTTAACACGTGGGATG | -0.15 |
| GAGATCACGTGGGAAG | 0.23 |
| AATTGCACGTGGTTGA | 0 |
| TTTGGCACGTGGTATT | -0.08 |
| TCAATCACGTGTGTGT | 0.21 |
| CTGGTCACGTGTCGTG | 0.03 |
| CTTGACACGTGGGGAA | -0.11 |
| TTGAGCACGTGGATGC | -0.08 |
